Measured values taken from PubChem BioAssay AID488969 (Vanderbilt High Throughput Screening Facility, 2010).
Whole data set: some 110,000 compounds, median “z-score” near -0.1, cut for the highest 2% near 2. This is one part of the list.

Each molecule was assayed against Metabotropic glutamate receptor 8 (Rattus norvegicus) (UniProt P70579) (assay: mGluR8 Gi/Go-coupled signaling modulation – cell-based, rat, thallium flux, HTS, primary screen (AID 488969)). Conditions: HEK293 rat mGluR8, GIRK (G protein-gated inwardly rectifying potassium channel) thallium flux, FluoZin2; at 10 µM; stronger effect = higher value; submaximal glutamate (EC20) added with thallium.
Chain of UniProt P70579 (P70579 whole entry, looked up): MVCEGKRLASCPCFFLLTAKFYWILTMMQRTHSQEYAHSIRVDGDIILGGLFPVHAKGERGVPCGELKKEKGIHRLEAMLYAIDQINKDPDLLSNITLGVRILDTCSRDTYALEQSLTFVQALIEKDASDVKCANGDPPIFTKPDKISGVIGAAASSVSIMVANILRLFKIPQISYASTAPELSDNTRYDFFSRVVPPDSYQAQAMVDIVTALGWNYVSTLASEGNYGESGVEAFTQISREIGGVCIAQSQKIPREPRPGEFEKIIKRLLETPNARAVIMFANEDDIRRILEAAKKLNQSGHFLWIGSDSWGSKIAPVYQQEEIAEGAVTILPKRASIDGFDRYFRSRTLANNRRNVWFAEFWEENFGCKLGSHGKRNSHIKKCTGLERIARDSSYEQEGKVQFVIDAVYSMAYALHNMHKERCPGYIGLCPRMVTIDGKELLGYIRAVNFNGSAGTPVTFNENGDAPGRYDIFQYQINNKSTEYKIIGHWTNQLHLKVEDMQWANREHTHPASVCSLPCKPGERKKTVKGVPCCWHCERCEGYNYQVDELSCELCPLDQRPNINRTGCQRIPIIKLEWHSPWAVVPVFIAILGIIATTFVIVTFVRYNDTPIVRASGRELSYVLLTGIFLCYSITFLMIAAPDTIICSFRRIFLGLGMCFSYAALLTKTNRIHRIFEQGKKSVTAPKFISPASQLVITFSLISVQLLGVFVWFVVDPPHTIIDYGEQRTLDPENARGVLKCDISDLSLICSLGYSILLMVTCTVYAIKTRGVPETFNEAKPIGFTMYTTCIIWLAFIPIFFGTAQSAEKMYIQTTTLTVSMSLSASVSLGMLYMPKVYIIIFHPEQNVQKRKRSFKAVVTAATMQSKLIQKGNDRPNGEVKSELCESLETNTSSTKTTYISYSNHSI

| Structure (SMILES) | z-score |
| --- | --- |
| CCOC(=O)C1CCCN(CCC(=O)Nc2ccccc2)C1 (centres undefined) | -0.068 |
| COC(=O)CSc1nnc(-c2cccs2)n1-c1ccc(Cl)cc1 | -1.43 |
| Cn1nc2c(c1C(=O)O)CCCC2 | 0.299 |
| CC(C)(C)n1nnnc1C(c1cccs1)N1CCN(Cc2ccc3c(c2)OCO3)CC1 (centres undefined) | -0.36 |
| CN(C)c1nc(OCCNC(=O)Nc2ccccc2)nc(N2CCOCC2)n1 | -0.658 |
| O=C1N/C(=N/NC(=O)c2cccc3ccccc23)S/C1=C\c1ccccc1OCc1ccccc1 | -0.335 |
| CC(=O)c1cc2c(cc1NS(=O)(=O)c1ccc(C)cc1)OCCO2 | 0.237 |
| O=C(c1cccc(F)c1)N1CCN(C(=O)C2CC2)CC1 | -0.948 |
| Fc1ccc(NC(=S)NCc2ccccc2Cl)cc1 | 1.74 |
| O=C(N/N=C1/CC(c2ccccc2)Oc2ccccc21)C1CC1 (centres undefined) | -0.0209 |
| Cc1ccc(NC(=O)/C(CN(C)C)=N\O)cc1 | -1.32 |
| Cc1ccc(CCc2nnc(SCC(=O)Nc3cccc(Cl)c3)n2-c2ccccc2)o1 | -0.254 |
| O=C(NCc1ccccn1)C1CCC(=O)N1C1CCCCC1 (centres undefined) | 0.715 |
| COc1cccc(OCCNc2cc(Cl)ccc2[N+](=O)[O-])c1 | 0.00367 |
| O=C(c1cc(-c2ccccc2)nc2ccccc12)N1CCOCC1 | -0.188 |
| Cc1ccc(SCC(=O)NCc2ccncc2)cc1 | -0.329 |
| CCOC(=O)c1ccc(NC(=S)Nc2ccccn2)cc1 | 0.444 |
| O=c1c2ccccc2n2nnnc2n1-c1ccccc1 | -0.0808 |
| CCOC(=O)C1CCN(C(=O)C2CCN(S(=O)(=O)c3cccc4cccnc34)CC2)CC1 | -0.911 |
| COc1ccc(-c2nnc(OCc3ccccc3)c3ccccc23)cc1 | -0.227 |
| O=C1CC(N2CCC(C(=O)N3CCCCC3)CC2)C(=O)N1 (centres undefined) | 0.247 |
| Fc1ccc(-c2csc3ncnc(Cl)c23)cc1 | 0.443 |
| Cc1ccc(CC2C(=O)N(c3ncccn3)C(=O)C2C)cc1 (centres undefined) | 1.03 |
| O=c1[nH]c(/C=C/c2ccccc2OC(F)F)nc2c1cnn2-c1ccccc1 | -0.274 |
| c1ccc(-c2csc(Nc3nc(N4CCOCC4)nc(N4CCOCC4)n3)n2)cc1 | 0.543 |
| O=C(O)c1cccc(Oc2ccc([N+](=O)[O-])cc2)c1 | 0.482 |
| O=C(CCc1ccc(S(=O)(=O)NCc2ccccc2)cc1)NCC1CCCO1 (centres undefined) | -0.199 |

| Structure (SMILES) | z-score |
| --- | --- |
| O=C(NCCCN1CCN(CCCNC(=O)c2cccc(Cl)c2)CC1)c1cccc(Cl)c1 | 0.118 |
| CCCOc1ccccc1C1NC(=O)NC(C)=C1C(=O)OCCOC (centres undefined) | -0.598 |
| O=C(Nc1ccc(Cl)cn1)c1cccc(S(=O)(=O)N2CCOCC2)c1 | -0.352 |
| COC(=O)c1ccc(NC(c2ccc(Cl)cc2)P(=O)(OC)OC)cc1 (centres undefined) | -0.338 |
| Cc1cc(C)c2c(n1)nn1c(NCCOCCO)cc(C)nc21 | -0.491 |
| CN(C(=O)c1ccccn1)C1(C(=O)NC2CCCCC2)CCCCC1 | 0.116 |
| c1ccc2nc3c(nc2c1)c1ccccc1n3CCN1CCOCC1 | -0.0524 |
| COc1ccccc1CC(=O)Nc1ccc2nc(C)sc2c1 | -0.41 |
| COCCCn1c(SCc2nnc(-c3ccc(OC)c(OC)c3)o2)nc2ccccc2c1=O | -0.725 |
| CCCCc1c(C)c(C#N)c2nc3ccccc3n2c1Cl | -0.226 |
| O=C(COC(=O)C1CCN(S(=O)(=O)c2ccc3c(c2)OCCO3)CC1)Nc1ccc(C(F)(F)F)cc1 | -2.15 |
| CC1Cc2ccccc2N1C(=O)CSc1nnc(-c2ccc(S(=O)(=O)N3CCOCC3)cc2)n1C (centres undefined) | -0.209 |
| Cc1occc1-c1nnc(SCC(=O)N(C)C)o1 | 0.103 |
| O=C(/C=C/Nc1ccccc1OC(F)(F)F)C(F)(F)F | -0.635 |
| C=CCN1C(=O)OC2(CCCCC2)C1(C)O (centres undefined) | -0.219 |
| COc1cccc(N2CCN(Cc3nc4scc(-c5ccccc5)c4c(=O)[nH]3)CC2)c1 | -0.559 |
| CN(C(=O)c1cccc(N2C(=O)C3CC=CCC3C2=O)c1)C1CCCCC1 (centres undefined) | -0.00466 |
| COc1ccc(OCC(=O)Nc2cc(-c3nn(C)c(=O)c4ccccc34)ccc2OC)cc1 | -1.24 |
| O=C(NCC1CCCO1)c1cccc(N2CCCC2=O)c1 (centres undefined) | 0.31 |
| Cc1ccccc1OCCSc1nc(N(C)C)nc(N(C)C)n1 | -0.000271 |
| Cc1ccc(NC(=O)CN(c2ccc3c(c2)OCO3)S(=O)(=O)c2c(C)n[nH]c2C)cc1 | -0.0303 |
| COc1cccc(CNc2ncc(Br)cc2Br)c1O | -0.468 |
| O=C(CN1CCC(n2nnc3cc(F)ccc32)CC1)NNC(=O)c1ccccc1 | -0.146 |
| Cc1sc(-c2ccncc2)nc1OC(=O)c1ccccc1 | -0.372 |
| CCOc1cc(C)cc2oc(=O)cc(-c3ccccc3)c12 | 0.0205 |
| Cc1ccc(S(=O)(=O)N2CCC(C(=O)OCc3ccc([N+](=O)[O-])cc3)CC2)cc1 | -0.641 |
| C=C(C)C1CC=C(C)/C(=N/NC(=O)COc2ccc(C)cc2)C1 (centres undefined) | 1.47 |
